These results are taken from the supplement of paper PMC3334620.

Whole data set: some 33,000 sequences, median “E-score (-0.5 to 0.5)” near -0.011, cut for the highest 2% near 0.28. This is one part of the list.

For the assay, the target named is T1, Gcr1 (UniProt P07261).
T1 sequence: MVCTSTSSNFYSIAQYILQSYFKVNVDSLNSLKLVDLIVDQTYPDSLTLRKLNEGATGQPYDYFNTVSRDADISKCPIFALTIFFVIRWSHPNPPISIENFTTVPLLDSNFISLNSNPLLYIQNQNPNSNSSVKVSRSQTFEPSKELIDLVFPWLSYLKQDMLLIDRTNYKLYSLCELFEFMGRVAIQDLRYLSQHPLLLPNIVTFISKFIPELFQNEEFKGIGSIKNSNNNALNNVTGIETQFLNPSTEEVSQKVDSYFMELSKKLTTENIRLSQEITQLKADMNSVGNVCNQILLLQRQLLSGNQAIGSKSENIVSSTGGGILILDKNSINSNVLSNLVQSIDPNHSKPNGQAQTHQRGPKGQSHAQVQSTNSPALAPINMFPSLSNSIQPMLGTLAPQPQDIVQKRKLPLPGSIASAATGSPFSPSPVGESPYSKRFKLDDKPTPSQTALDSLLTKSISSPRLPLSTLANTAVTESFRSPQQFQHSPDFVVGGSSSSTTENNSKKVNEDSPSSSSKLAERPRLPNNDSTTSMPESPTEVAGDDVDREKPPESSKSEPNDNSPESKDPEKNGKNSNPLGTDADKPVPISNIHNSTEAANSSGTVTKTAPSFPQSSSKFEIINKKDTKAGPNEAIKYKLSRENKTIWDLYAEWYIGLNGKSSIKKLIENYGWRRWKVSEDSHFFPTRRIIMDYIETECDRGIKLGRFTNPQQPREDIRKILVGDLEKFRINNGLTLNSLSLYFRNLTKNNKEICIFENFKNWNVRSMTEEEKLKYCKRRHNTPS
Kind of assay: PBM E-score (8-mer binding enrichment) (E-score (-0.5 to 0.5)); higher = stronger / more preferred TF binding; most listed sequences are background and not binding sites. Particulars: protein concentration: 100 nM; construct: GST-full length. An outline of the steps: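 Detection of bound protein used fluorescent anti-GST, with scans normalised by masliner. The proteins were GST-tagged yeast transcription factors applied at about 100-200 nM to universal all-10-mer Agilent arrays made double-stranded by primer extension. Each ungapped eight-base word, pooled with its reverse complement, was scored with an E-score from the Universal PBM Analysis Suite.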
As to AACGGAGT, the “PBM E-score” value worked out at 0.0165.

Consider ACGTAAGC, for which the “PBM E-score” value is -0.142.

With ATCTCGTA, the “PBM E-score” value was found to be 0.102.

TACTAGAA: the “PBM E-score” value came out at 0.235.

For the sequence GGTTAGAA, the “PBM E-score” value is -0.151.

CATGCACC: the “PBM E-score” value is -0.181.

Consider CTCGAGTC, for which the “PBM E-score” value is -0.0326.

Turning to GAGCCCAA, the “PBM E-score” value stood at 0.119.

ATTATATC: the “PBM E-score” value worked out at 0.0964.

For ATGGAGAC, the “PBM E-score” value came to 0.145.

Regarding CCAGATAG, the “PBM E-score” value was found to be 0.128.

Take AAAGTTAT: the “PBM E-score” value came to 0.187.

As to CGGTATTC, the “PBM E-score” value stood at 0.152.

Take AAGATTGC: the “PBM E-score” value was 0.0695.

Turning to CTGCGTGA, the “PBM E-score” value turned out to be 0.157.

Take GGGTTGCA: the “PBM E-score” value was -0.0951.

In the case of GGTATGAA, the “PBM E-score” value was -0.0866.

Consider AGAACATA, for which the “PBM E-score” value was found to be 0.0279.

As for ACTTCAGG, the “PBM E-score” value is -0.0899.

On to CATACTGG, for which the “PBM E-score” value was determined as 0.209.

Regarding GTTCTGTA, the “PBM E-score” value was 0.0093.

In the case of ATACGAGC, the “PBM E-score” value was 0.0308.

Regarding AGCCGCCG, the “PBM E-score” value is 0.167.

In the case of ATACTGAA, the “PBM E-score” value came to 0.00831.

On to AACACCTG, for which the “PBM E-score” value was -0.252.

As for AAGGAACG, the “PBM E-score” value was -0.0671.

Consider ATCATACG, for which the “PBM E-score” value is -0.128.

ACGTGCGC: the “PBM E-score” value is -0.142.

Take TAAAAAGA: the “PBM E-score” value is 0.208.

In the case of GCCCTATA, the “PBM E-score” value amounted to 0.0309.

For the sequence ATCCGGCC, the “PBM E-score” value is -0.0916.

Take CTTGACAC: the “PBM E-score” value was -0.0389.

In the case of CATGCTGA, the “PBM E-score” value is -0.229.

For the sequence TTCCCAAA, the “PBM E-score” value came out at 0.255.

Turning to CAACGCCA, the “PBM E-score” value was -0.0342.

For the sequence GAGTTAAC, the “PBM E-score” value was -0.13.

As to CCAGGCGC, the “PBM E-score” value amounted to 0.144.

Turning to CGTGATTA, the “PBM E-score” value was -0.0287.

For AGGCTATG, the “PBM E-score” value was -0.126.

On to CAGTGCGC, for which the “PBM E-score” value was -0.0696.

For the sequence ATGTGTAA, the “PBM E-score” value is -0.0513.

With GCTCGTCC, the “PBM E-score” value was -0.13.

GAACATCA: the “PBM E-score” value is -0.138.

On to ACGACGAC, for which the “PBM E-score” value is -0.087.

In the case of CAGCTGGC, the “PBM E-score” value worked out at 0.0948.

With CCAATGGA, the “PBM E-score” value worked out at 0.0436.

With GAAGCATC, the “PBM E-score” value worked out at 0.217.

Turning to CGTTGACC, the “PBM E-score” value was -0.0635.

Turning to CTGGAACC, the “PBM E-score” value was 0.375.

Consider AGTCAGAT, for which the “PBM E-score” value worked out at 0.0324.

In the case of AACCAGCT, the “PBM E-score” value is 0.0341.

With CTTAACGC, the “PBM E-score” value is -0.15.

In the case of ACCCCAGG, the “PBM E-score” value is -0.134.

For AGATCAAT, the “PBM E-score” value was -0.0116.

For AGGTCTAT, the “PBM E-score” value is -0.0766.

On to TCTCGAGA, for which the “PBM E-score” value was 0.00792.

Regarding ACCGCAGA, the “PBM E-score” value is -0.12.

For GCTTATAA, the “PBM E-score” value came to 0.205.

As to AACATACT, the “PBM E-score” value is -0.238.

TAACACCA: the “PBM E-score” value is -0.147.

For the sequence CATAAGCA, the “PBM E-score” value was -0.00607.

CTAGTATC: the “PBM E-score” value amounted to 0.209.

Consider ACATGTTA, for which the “PBM E-score” value was -0.0798.

CCGATAAG: the “PBM E-score” value was -0.104.

Consider GATCTAGC, for which the “PBM E-score” value was -0.062.

Take AGCCGAGG: the “PBM E-score” value is -0.105.

AATTTGAA: the “PBM E-score” value is 0.206.

With CGACGCTA, the “PBM E-score” value amounted to 0.0406.

In the case of CTATATGC, the “PBM E-score” value was determined as 0.0406.

Take CCTCAGAG: the “PBM E-score” value was -0.128.

As to CCCGTGCA, the “PBM E-score” value was -0.309.

With GATTGAAA, the “PBM E-score” value is -0.0674.

Take AGGTGTGC: the “PBM E-score” value is -0.205.

Regarding ACATTATG, the “PBM E-score” value is -0.0212.

For AGCCTTAG, the “PBM E-score” value was -0.164.

Take ATAGGGGG: the “PBM E-score” value is 0.193.

ATAGTGGC: the “PBM E-score” value is 0.32.

For AAGGCTGG, the “PBM E-score” value is -0.24.

On to CCCAAAAG, for which the “PBM E-score” value stood at 0.13.

On to CTCACGAC, for which the “PBM E-score” value is -0.118.

AGTGGAGA: the “PBM E-score” value was -0.0192.

Regarding GTCCCAGA, the “PBM E-score” value is 0.147.

AGTCTGGC: the “PBM E-score” value was -0.0196.

CGAACATC: the “PBM E-score” value came out at 0.139.

In the case of TACGCGCA, the “PBM E-score” value is -0.0159.

Turning to AATACTCA, the “PBM E-score” value was determined as 0.0848.
